# PubChem BioAssay AID686978 (National Center for Advancing Translational Sciences (NCATS), 2013)
# Among all 420,000 compounds or so, about 64,000 (15%) were called active. Inconclusive means that the source gave no clear call. Such entries were picked first, then a sample of the others. Calls follow the shape of the dose curve; as a rule, active = well fitted inhibition curve with a large enough effect; inconclusive = small, poorly fitted or top-dose-only effect; inactive = flat fitted curve, though single readings scatter. No potency is given beside an inconclusive call; the fits are too rough.
# Test: qHTS for Inhibitors of human tyrosyl-DNA phosphodiesterase 1 (TDP1): qHTS in cells in absence of CPT; also: nearly all actives have a fitted effect of over 55% in size
# Settings: DT40 Tdp1-/- hTDP1 cells, no CPT, ATP luminescence, 48 h; activity change, negative = growth inhibition: at 46.2 µM (top of the series) unless noted
# Method in brief: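 Growth of hTDP1-complemented DT40 Tdp1-knockout cells is measured by ATP luminescence after at least 48 hr compound exposure at 37 °C, with DMSO substituting for the 20 nM CPT used in the parallel screen.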
# % is scaled to controls: 0 for no effect and ±100 for the full control effect; potency is read from the fitted curve at half-maximal effect; tags tell the direction and shape of the fitted curve.
Compound,Potency,"activity change, negative = growth inhibition"
Nc1c2nc(-c3ccccc3)[nH]c(=O)c2nc(=O)n1-c1ccccc1,"inconclusive [inhibitor, partial curve]",–
CCOC(=O)/C(C#N)=C/c1c(N2CCN(c3ccc(OC)cc3)CC2)nc2c(C)cccn2c1=O,"inconclusive [inhibitor, single point]",–
COc1ccc(C(=O)NC(=S)NNC(=O)c2ccc(C)cc2)cc1,"inconclusive [inhibitor, single point]",–
Cc1nn(C)c(C(=O)NC(=S)Nc2ccccc2O)c1Cl,–,inconclusive: -31.5% [inhibitor]
CC(=O)NCCNC(=O)C1(C)Cc2c(-c3ccc(NC(C)=O)cc3)ccnc2O1 (configuration not stated),"inconclusive [inhibitor, partial curve, poor fit]",–
CCN(CC)c1nc(OCCNC(=O)Nc2ccccc2)nc(N(CC)CC)n1,"inconclusive [inhibitor, single point]",–
COC(=O)c1c(C)nn(-c2ccc(F)cc2)c1-n1cccc1,"inconclusive [inhibitor, partial curve]",–
CCCCn1cnc2cc(NCc3ccncc3)ccc21,–,inactive: -26.1%
COC(=O)c1ccccc1CON1C(=O)C(C)(C)N(OCc2ccccc2C(=O)OC)C(=O)C1(C)C,"inconclusive [inhibitor, single point]",–
CCOc1ccc(C(=S)N2CCCC2)c(OCC)c1,"inconclusive [inhibitor, single point]",–
Cc1ccc(C2SCCN2C(=O)c2ccc([N+](=O)[O-])cc2)cc1 (configuration not stated),"inconclusive [inhibitor, single point]",–
Cc1ccc(NC(=O)CSc2nc(-c3ccccc3Cl)nc3cc(=O)[nH]n23)c(C)c1,"inconclusive [inhibitor, single point]",–
CCOCCCNC(=O)C1CCN(S(=O)(=O)N2CCCC2)CC1,–,inconclusive: -8.17% [inhibitor]
O=C(Nc1ccccc1O)c1csc2c1CCCC2,"inconclusive [inhibitor, partial curve]",–
COC(=O)CC1(C(=O)OC)Oc2ccccc2C(=O)N1c1ccc(F)cc1F (configuration not stated),–,inconclusive: -33.5% [inhibitor]
CCN(CC)S(=O)(=O)c1cc(NC(=O)CN2CCN(c3ccccn3)CC2)ccc1C,active: 23.1 µM,–
CC(=O)Nc1c(O)nc(C)[nH]c1=O,–,inactive: 25%
Cc1c(Cl)cccc1NC(=S)N1CCN(S(=O)(=O)c2cccs2)CC1,–,inactive: -1.29%
O=C(CCCn1c(=S)[nH]c2ccc(Br)cc2c1=O)N1CCN(c2ccccn2)CC1,"inconclusive [inhibitor, single point]",–
O=C(CCC(=O)N1CCOc2ccc(Cl)cc21)N1CCN(c2ccccn2)CC1,"inconclusive [inhibitor, single point]",–
COc1cccc(N2CCN(S(=O)(=O)c3ccc(-c4ccno4)cc3OC)CC2)c1,"inconclusive [inhibitor, single point]",–
CS(=O)(=O)N(CC(=O)N1CCN(c2ccccc2F)CC1)C1CCCCC1,"inconclusive [inhibitor, single point]",–
Ic1ccc(Nc2nc(NCCN3CCOCC3)nc(N3CCOCC3)n2)cc1,active: 2.82 µM,–
COc1ccc(OC)c(C2NC(=O)NC(C)=C2C(=O)Nc2ccc(F)cc2)c1 (configuration not stated),–,inactive: -6.87%

Compound,Potency,"activity change, negative = growth inhibition"
CC(=O)Nc1ccc(NC(=O)C(Cc2ccccc2)NC(=O)C2CCC(C)CC2)cc1 (configuration not stated),–,inactive: -20.2%
CCOc1ccccc1C(=O)NC1CC2CCCC(C1)N2Cc1nnnn1Cc1ccco1 (configuration not stated),active: 16.4 µM,–
COc1ccc(C(=O)C2CCCN(C(=O)c3cccc(Cl)c3F)C2)cc1OC (configuration not stated),"inconclusive [inhibitor, single point]",–
CCN(CC)CCNc1nc(-c2ccc(OC(F)F)cc2)c(C)s1,"inconclusive [inhibitor, single point]",–
N#Cc1c2c(c(Cl)n3c1nc1ccccc13)CCCC2,active: 0.891 µM,–
CCOC(=O)C1Nc2ccc(C)cc2C2C=CCC12 (configuration not stated),active: 18.4 µM,–
O=C(O)CN1CCCC1=Nc1ccccc1,–,inactive: 3.5%
NC(=S)N/N=C/c1ccc(-c2cc(Cl)c(Cl)cc2Cl)o1,active: 4.61 µM,–
O=C(Cn1cnc2c(nnn2Cc2ccc(F)cc2)c1=O)NCc1ccc2c(c1)OCO2,"inconclusive [inhibitor, single point]",–
COc1ccc(NC(=O)c2ccco2)cc1NC(=O)COc1ccc(Cl)cc1C,active: 9.2 µM,–
CC[C@@H](C)[C@@H]1CN([C@@H](CN2CCC[C@H]2CN2C(N)=NC[C@H]2CC(C)C)C(C)C)C(=N)N1CCc1ccc(Cl)c(Cl)c1,"inconclusive [inhibitor, single point]",–
COCCn1c(-c2ccccc2)cnc1SCC(=O)Nc1cccc2ccccc12,"inconclusive [inhibitor, single point]",–
O=C(NCC(O)CO)c1c(I)c(C(=O)NCC(O)CO)c(I)c(N(CCO)C(=O)CO)c1I (configuration not stated),–,inactive: -11.3% [at 21.1 µM]
O=C(NC(=S)Nc1ccc2oc(-c3cccnc3)nc2c1)c1cccc(Cl)c1,"inconclusive [inhibitor, partial curve]",–
Cn1c2c(c3ccccc31)CCN1CCC[C@]21c1ccccc1,"inconclusive [inhibitor, single point]",–
O=C(c1ccc2c(c1)CCC2)N1CCN(Cc2ccccc2)CC1,"inconclusive [inhibitor, single point]",–
ClCc1csc(-c2ccccc2Cl)n1,active: 18.4 µM,–
COc1cccc(N2CCN(C(=O)c3ccc(NC(=O)c4nsc5ccccc45)cc3)CC2)c1,"inconclusive [inhibitor, single point]",–
CC(=O)c1ccc(NC(=O)CCc2nc3sc4c(c3c(=O)[nH]2)CCCC4)cc1,"inconclusive [inhibitor, single point]",–
CCc1ccc(OCC(=O)NC(NC(=S)Nc2ccccc2C)C(Cl)(Cl)Cl)cc1 (configuration not stated),"inconclusive [inhibitor, single point]",–
Cc1ccc(S(=O)(=O)N2CCOCC2)cc1NC(=O)COC(=O)COc1ccc(C#N)cc1,–,inconclusive: -30.8% [inhibitor]
COCc1cc(CNC(=O)C2CCC(=O)N(Cc3ccccc3F)C2)[nH]n1 (configuration not stated),–,inactive: 3.81%
CC(C)[C@H](NC(=O)c1c(F)cccc1F)C(=O)Nc1cccc(Br)c1,–,inactive: 1.56%
COc1ccc(C2CC(c3ccc4ccccc4c3)=NN2C(=O)CN2C(=O)CCC2=O)cc1 (configuration not stated),active: 23.1 µM,–

Compound,Potency,"activity change, negative = growth inhibition"
CC(=O)Nc1cccc(-c2cc3c(c4c2ccn4C)C2CCC3O2)c1 (configuration not stated),"inconclusive [inhibitor, partial curve]",–
CCN(CC)CCNC(=O)c1sc2ncccc2c1-n1cccc1,–,inactive: 14.1%
Cc1nc(/C=C/c2ccccc2)[nH]c(=O)c1-c1ccccc1,"inconclusive [inhibitor, single point]",–
Cc1ccc(S(=O)(=O)/N=C(\N)Nc2nc(C)c3ccc(C)cc3n2)cc1,"inconclusive [inhibitor, single point]",–
Nn1c(Cc2cccc3ccccc23)nnc1SCC(=O)N1CC(=O)Nc2ccccc21,"inconclusive [inhibitor, single point]",–
COc1cc(C2NC(=S)NC3=C2CCc2ccccc23)cc(OC)c1OC (configuration not stated),"inconclusive [inhibitor, single point]",–
CCN1C=CC(=C2C(=O)c3ccccc3C2=O)C=C1,active: 14.6 µM,–
Cc1ccc(C(=O)NCc2ccc(F)cc2)cc1NC(=O)c1nsc2ccccc12,active: 23.1 µM,–
COc1ccccc1C(=O)NNC(=O)c1ccc(Br)o1,–,inactive: -23.6%
CCCCOc1cccc(NC(=O)CSc2nccn2C)c1,–,inactive: -19.2%
CC(=O)Nc1ccc(SCC(=O)Nc2ccccc2-c2ccccc2)cc1,active: 23.1 µM,–
S=c1[nH]nc(-c2ccccn2)n1/N=C/c1ccc(Cl)c(Cl)c1,–,inactive: -20.1%
O=C1C=CC(=O)N1c1ccc(-c2nc3ccccc3o2)cc1,active: 1.64 µM,–
CC(C)C(=O)Nc1ccc(S(=O)(=O)N2CCC(c3nc4ccccc4[nH]3)CC2)cc1,active: 20.6 µM,–
Cc1cc(C)cc(NC(=O)N2CCCN(Cc3c(F)cccc3Cl)CC2)c1,"inconclusive [inhibitor, partial curve, poor fit]",–
CC(NS(=O)(=O)c1ccc(Br)cc1)C(c1cccs1)N1CCN(C)CC1 (configuration not stated),"inconclusive [inhibitor, single point]",–
Cn1cc(S(=O)(=O)c2ccccc2)c(=O)c2cc(F)c(N3CCCCCC3)cc21,"inconclusive [inhibitor, partial curve]",–
O=C(Cc1c(Cl)cccc1Cl)Nc1ccncc1Cl,"inconclusive [inhibitor, partial curve]",–
CCOC(=O)c1c(NC(=O)CNCCO)sc(C)c1C,"inconclusive [inhibitor, partial curve]",–
Cc1sc2ncnc(NCc3ccco3)c2c1C,active: 16.4 µM,–
Cc1cc(C)c2c(c1)c1nnc(SCCN3CCOCC3)nc1n2C,active: 8.2 µM,–
O=C1NC2(CCCCCC2)C(=O)N1Cc1ccc(Cl)cc1Cl,"inconclusive [inhibitor, single point]",–
O=[N+]([O-])/C(C(Cl)=C(Cl)Cl)=C1\Nc2ccccc2O1,–,inactive: -16.7%
COc1ccc(OC)c(CNC(=O)Cn2nc(C)c3c(C)n(-c4ccc(C)cc4)nc3c2=O)c1,active: 16.4 µM,–
